Results published in the supplement of paper PMC12636428.

Tested on: Saccharomyces cerevisiae
Assay: transcriptional activation domain activity (GFP:mCherry ratio, weighted mean of sorted bins, harmonized to initial dataset scale) (arbitrary fluorescence ratio units); higher = stronger transcriptional activation
Details: beta-estradiol 1 µM; induction time 4 h
Description: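 53-aa protein tiles (fungal proteins plus yeast TF control tiles) fused C-terminally to a DBD-estrogen-binding domain-mCherry synthetic TF, integrated in S. cerevisiae (URA3 locus) with a GFP reporter. Cells were induced with 1 uM beta-estradiol for 4 h at 30 C, FACS-sorted into 8 bins by GFP:mCherry ratio and barcodes sequenced. Activity is the read-weighted mean bin fluorescence (GFP:mCherry), averaged over barcodes (median 12); tiles under 50 reads were discarded. New active-learning values were harmonized by linear fit onto the scale of the initial (Hummel et al.) dataset. The assay saturates at low and high signal.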

DEVMKIMPVQKQTRAGQRTRFKAFVVIGDSNGHVGLGVKCSKEVATAIRAAII
transcriptional activation domain activity: 43500

EVMKIKPVQKQTRAGQRTRFKAIVVIGDSNGHVGLGIKTSKEVATAIRAAIII
transcriptional activation domain activity: 56300

EVMKIKPVQKQTRAGQRTRFKAVVIIGDSEGHVGLGIKTSKEVATAIRAAIII
transcriptional activation domain activity: 46400

EVMKIMPVQKQTRAGQRTRFKAFVVIGDHNGHVGLGVKCSKEVATAIRGAIIL
transcriptional activation domain activity: 44200

EVMKIMPVQKQTRAGQRTRFKAFVVIGDSNGHVGLGVKCSKEVATAIRGAIIL
transcriptional activation domain activity: 36600

KDEVMKIKPVQKQTRAGQRTRFKAVVVIGDSNGHVGLGIKTSKEVATAIRAAI
transcriptional activation domain activity: 67100

LKDEVMKIKPVQKQTRAGQRTRFKAIVVIGDSEGHVGLGIKTSKEVATAIRAA
transcriptional activation domain activity: 57000

MKIKSVQKQTRAGQRTRMKAIVVLGDSNGHVGLGIKTAKEVATAIRAAIIIAK
transcriptional activation domain activity: 55900

RSMPIRKDDEVLIVRGKDKGKEGKVVQVYRKKWVIHVERVTKDKTNGATVQIG
transcriptional activation domain activity: 33500
